# Results as given in publication PMC6919601, “Identification of Plasmodium dipeptidyl aminopeptidase allosteric inhibitors by high throughput screening” (PLoS ONE, 2019).
# “And” between values parts separate entries of the source, which are not always exact repeats. Equal entries are not always repeated. Hit rate of the full screen: of about 110,000 compounds, about 230 (0.21%) showed an effect of 50% or more. The list shows a part of the results.
# Target: DPAP1 (Plasmodium falciparum, UniProt Q8IIJ9)
# Sequence (Q8IIJ9 whole entry, looked up): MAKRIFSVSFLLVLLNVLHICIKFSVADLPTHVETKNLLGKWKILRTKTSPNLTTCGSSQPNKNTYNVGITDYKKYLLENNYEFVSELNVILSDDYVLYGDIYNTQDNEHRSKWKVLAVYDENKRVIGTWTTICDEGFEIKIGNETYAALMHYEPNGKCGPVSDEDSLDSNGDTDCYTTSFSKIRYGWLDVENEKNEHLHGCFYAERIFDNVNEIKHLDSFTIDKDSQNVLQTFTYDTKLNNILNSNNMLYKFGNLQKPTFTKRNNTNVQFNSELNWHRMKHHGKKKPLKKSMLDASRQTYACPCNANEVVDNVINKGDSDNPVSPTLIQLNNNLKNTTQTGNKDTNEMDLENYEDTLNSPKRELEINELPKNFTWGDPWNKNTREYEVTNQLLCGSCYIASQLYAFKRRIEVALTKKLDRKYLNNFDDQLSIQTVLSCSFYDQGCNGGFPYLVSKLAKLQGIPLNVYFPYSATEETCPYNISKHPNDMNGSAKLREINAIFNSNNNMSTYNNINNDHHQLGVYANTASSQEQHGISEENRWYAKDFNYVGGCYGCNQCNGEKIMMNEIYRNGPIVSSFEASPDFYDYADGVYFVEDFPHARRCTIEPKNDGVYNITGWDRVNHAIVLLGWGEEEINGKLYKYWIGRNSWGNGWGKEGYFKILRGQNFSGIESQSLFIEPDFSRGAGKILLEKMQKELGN
# Experiment: primary screen, percent inhibition; read by cleavage of a fluorogenic dipeptide substrate; higher = more effect of the substance
# Parameters: species or system P. falciparum D10 trophozoite lysates; single well
# 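Further: 30 min substrate incubation versus DMSO and 10 µM JCP410 controls.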
row,SMILES,% Inhibition @ 10 uM
1,CC1=NC2=C(C(=O)CCC2)C(c2cccc(F)c2)/C1=C(\O)OC(C)C (stereo not drawn),2.79%
2,CN(C)CCNC(=O)Cn1ccc2cc(S(=O)(=O)N3CCCCC3)ccc21,2.28%
3,Cc1ccc(C(C)C)c(OCCSc2nc(-c3ccco3)nc3cc(=O)[nH]n23)c1,-7.1%
4,COc1cccc(C(=O)NCC2(c3ccc(OC)c(OC)c3)CCCC2)c1,0.755%
5,Cc1cc(C)c2c(CC(=O)NC3CCS(=O)(=O)C3)coc2c1 (stereo not drawn),-0.671%
6,CC1=C(c2ccc(Cl)cc2)S(=O)(=O)N=C1NCCC1=CCCCC1,6.91%
7,Cc1nn(-c2ccccc2)c(N)c1C(NC(=O)c1ccccc1)(C(F)(F)F)C(F)(F)F,-3.36%
8,CSCCC(NS(=O)(=O)c1ccc2c3c(cccc13)C(=O)N2C)C(=O)O (stereo not drawn),-1.55%
9,CC(=O)NC1(C(C)=O)C(=O)N(C(C)=O)c2ccccc21 (stereo not drawn),3.96%
10,CCN(CC)c1ccc(CN2CCC(C(N)=O)CC2)cc1,-8.55%
11,CCc1[nH]nc2c1C(c1c(Cl)cccc1Cl)C(C#N)=C(N)O2 (stereo not drawn),-1.64%
12,O=C(CC(c1ccccc1)c1cc(Br)ccc1O)NCc1cccnc1 (stereo not drawn),-3.34%
13,Clc1ccccc1/C=C/c1nc2ccccc2[nH]1,-0.256%
14,Cc1cc(C)nc(/N=C(\N)Nc2cc(Cl)ccc2C)n1,-1.88%
15,CC(=O)NC(CCS(C)(=O)=O)C(=O)Nc1cc(C)on1 (stereo not drawn),-0.396%
16,CC(=O)Nc1ccc(NC(=O)c2ccccc2C(=O)O)cc1,4.73%
17,CCOc1ccc(NC2=NC(=O)C(CC(=O)Nc3cccc(C)c3C)S2)cc1 (stereo not drawn),3.8%
18,O=C(Nc1cccnc1)C(Cc1ccccc1)N1C(=O)C2C3C=CC(C3)C2C1=O (stereo not drawn),-0.551%
19,OCCN1CCN(Cc2ccco2)CC1,3.48%
20,Cc1cc(C(=O)NCCN2CCCC2)c2c(C)nn(-c3cccc(Cl)c3C)c2n1,-3.56%
21,O=C(Nc1ccccc1F)c1ccc(CNS(=O)(=O)c2cccc(C(F)(F)F)c2)cc1,1.94%
22,CCCNC(=O)CSc1c(O)nc2ccc(Cl)cc2c1-c1ccccc1,3.16%
23,Clc1cccc(/C=N/n2cnnc2)c1Cl,8.98%
24,COc1cccc(CN(C(=O)c2sc3ccccc3c2Cl)C2CCS(=O)(=O)C2)c1 (stereo not drawn),-4.95%
25,Cn1c(=O)c2sccc2n2c(CCCC(=O)N3CCCCC3)nnc12,-0.485%

row,SMILES,% Inhibition @ 10 uM
1,Cc1ccc(-c2cc(C(=O)Nc3ccccc3)[nH]n2)cc1,-4.43%
2,Oc1ccc(CN2CCc3c([nH]c4ccccc34)C2)cc1,-7.52%
3,COc1ccccc1Nc1nc(NC2CCCCC2)nc(C)c1[N+](=O)[O-],-1.05%
4,CC(C)c1ccc(/C=C/C(=O)Nc2ccc(Cl)cc2)cc1,-3.71%
5,CSC1=NSC2=NC(=O)/C(=C\c3ccc(O)c(O)c3)C(=N)N12,6.89%
6,Clc1cccc(C2C=C(c3cccnc3)Nc3nc4ccccc4n32)c1 (stereo not drawn),-1.62%
7,CSc1ccc(C2C3=C(O)CCCC3=NC(C)=C2C(=O)Nc2ccccc2C)cc1 (stereo not drawn),-10.3%
8,CCC1(C)Cc2c(sc3nc(SCC(=O)Nc4ccccc4)nc(N)c23)CO1 (stereo not drawn),0.606%
9,CC1=NC(c2ccccc2)(c2ccccc2)c2ccccc2O1,4.15%
10,O=C(Nc1cccc2c1CCCC2)c1ccco1,5.73%
11,Cc1cc(OCC(O)CN2CCCC2)cc(C)c1Cl (stereo not drawn),-0.711%
12,CCOCCCNC(=O)c1ccc2c(c1)ncn2C1CCCC1,-8.86%
13,Cc1cccn2c(=O)c3cc(S(=O)(=O)c4ccc(Cl)cc4)c(=N)n(Cc4ccco4)c3nc12,0.343%
14,O=C(NCC1CCCO1)c1nc(CS(=O)(=O)c2ccccc2)no1 (stereo not drawn),-6.25%
15,CN(CCCNC(=O)COCc1cc(-c2ccc(F)cc2)on1)Cc1ccccc1,-3.25%
16,O=C(NCCOC12CC3CC(CC(C3)C1)C2)c1cc2c(s1)-c1ccccc1OC2,3.45%
17,CCOc1cc(C)c(S(=O)(=O)N2CC(C)OC(C)C2)cc1C (stereo not drawn),-6.44%
18,CN(C)CCN(C)Cc1ccc([N+](=O)[O-])cc1,0.247%
19,Oc1nc(N2CCCCCC2)nc2ncn(Cc3ccccc3)c12,-3.52%
20,CC1(O)N(CCOC23CC4CC(CC(C4)C2)C3)C(=O)OC12CCCCC2 (stereo not drawn),-0.25%
21,CCOC(=O)c1c(C)[nH]c(C)c1S(=O)(=O)N1CCN(C(=O)c2ccco2)CC1,-4.74%
22,CC1(C)Cc2c(sc3ncn4nc(CSc5nc6ccccc6s5)nc4c23)C(C)(C)N1,13.5%
23,CC(C)C[C@H](NC(=O)N1CCCc2ccccc21)C(=O)NCC#N,-6.98%
24,CCOc1ccc(C2NCCc3cc(OC)c(OC)cc32)cc1OC (stereo not drawn),-4.97%
25,CC(=O)c1ccc(-c2nnc(-c3cccs3)o2)cc1,-5.67%

row,SMILES,% Inhibition @ 10 uM
1,Cc1ccc(C)c(OCC(=O)Nc2cc(C)on2)c1,2.46%
2,CCN(CC)c1c(S(=O)(=O)c2ccc(Cl)cc2)cnc2cc3c(cc12)OCCO3,-1.69%
3,CCCc1c(O)nc2ccc(C)cc2c1C,-6.22%
4,O=C(COc1cccc2ccccc12)Nc1ccccc1Cl,-3.05%
5,O=C(CSCc1c(Cl)cccc1Cl)N1CCCC1,-4.6%
6,Cc1cc2oc(=O)cc(C)c2c2occ(-c3ccccc3)c12,5.35%
7,O=C(C1=C(O)C(=O)N(c2ncccn2)C1c1cccc(Cl)c1)c1ccco1 (stereo not drawn),14.8%
8,Fc1ccc(CNCc2ccccn2)cc1,6.47%
9,COc1ccc(/C=C(/NC(=O)c2cccc(C)c2)C(=O)Nc2ccc(OC)cc2)cc1,0.76%
10,Cc1cc(C)cc(-n2nnc(-c3nc(-c4ccccc4)no3)c2N)c1,-1.31%
11,Cc1cc2nc(O)c(O)nc2cc1S(=O)(=O)N1CCN(CCOc2ccc(Cl)cc2)CC1,52.3%
12,CC(C)/N=C1\SC(CC(=O)Nc2ccc(Cl)cc2Cl)C(=O)N1C(C)C (stereo not drawn),-3.27%
13,CCCCNC(=O)c1cnn2c(C(F)F)cc(-c3ccccc3)nc12,4.08%
14,O=C(Cn1nnc2sc3c(c2c1=O)CCCC3)c1cc2ccccc2o1,0.758%
15,c1ccc(-c2nc(CN3CCOCC3)cs2)cc1,-6.07%
16,O=C(c1ccc2c(c1)c(=O)oc1ccccc12)N1CCCCC1,0.0539%
17,COCCNC(=O)C(C)n1ncn2cccc2c1=O (stereo not drawn),-4.26%
18,O=C(CCc1cc(Cl)no1)Nc1nccs1,4%
19,CCC1=Nc2c(c(=O)[nH]c(=O)n2Cc2ccco2)C(C(F)(F)F)(C(F)(F)F)N1,-5.23%
20,CCOC(=O)N1CCC(NC(=O)NCc2noc3ccc(C)cc23)CC1,0.568%
21,COc1ccccc1NC(=O)CSc1nc2sc3c(c2c(=O)n1C)CCCC3,-2.68%
22,N#CCNC(=O)C(CCc1ccc(F)cc1F)NC(=O)OCc1ccccc1 (stereo not drawn),-3.48%
23,O=C1CC(N2CCSCC2)C(=O)N1c1ccc(N2C(=O)CC(N3CCSCC3)C2=O)cc1 (stereo not drawn),-4.39%
24,COc1cc(/C=C2/NC(=O)N(c3ccc(Cl)cc3)C2=O)cc2c1OCO2,-4.05%
25,COCC(C)NC(=O)CN1C(=O)c2ccccc2C1=O (stereo not drawn),-1.6%

row,SMILES,% Inhibition @ 10 uM
1,O=C1C2CC=C(Cl)CC2C(=O)N1Cc1ccccc1 (stereo not drawn),0.408%
2,COc1ccc2oc(=O)c(-c3nc(-c4nonc4N)no3)cc2c1,1.4%
3,COc1cc(Cl)c(S(=O)(=O)N2CCN(c3ccccc3OC)CC2)cc1Cl,4.25%
4,O=C(O)c1ccc(NS(=O)(=O)c2cccc(C(=O)Nc3cccc([N+](=O)[O-])c3)c2)cc1,-3.75%
5,O=C(NCCCc1ccccc1)C1CCCN(S(=O)(=O)N2CCCCC2)C1 (stereo not drawn),-6.89%
6,NS(=O)(=O)c1ccc(CCN2C(=O)c3ccc(C45CC6CC(CC(C6)C4)C5)cc3C2=O)cc1,0.032%
7,O=C(Nc1c2c(nc3c1CCC3)CCCC2)c1ccncc1,-1.96%
8,CC(C)(C)c1ccc(C(=O)Nc2nccs2)cc1Br,0.909%
9,COc1ccc(Br)cc1CNC(=O)c1cc2cccc3c2n1CC(C)S3 (stereo not drawn),0.796%
10,CCOC(=O)c1cnc2ccc(OC)cc2c1NCCO,0.275%
11,O=C1C(c2ccccc2)=C(O)c2cnccc21,2.46% and -0.519%
12,CC(CCc1ccc(O)cc1)N1CCN(C/C=C/c2ccccc2)CC1 (stereo not drawn),-1.81%
13,O=C(O)CNC(=O)CN1C(=O)c2ccc(C(=O)O)cc2C1=O,18.3%
14,COc1cc(OC)c(OC)cc1/C=C1\CS/C(=C\c2cc(OC)c(OC)cc2OC)C1=O,-8.69%
15,CCOC(=O)C1CCCN(Cc2ccc(OCC)cc2)C1 (stereo not drawn),-0.192%
16,C=C(C)C(=O)Nc1ccc(O)c(-c2nc3cc(NC(=O)C(=C)C)ccc3o2)c1,5.63%
17,CCCSc1nnc(-c2ccc(Cl)cc2Cl)o1,-3.06%
18,O=C(O)C1CC(=O)N(Cc2ccccc2)/C(=N/c2ccc(Cl)cc2)S1 (stereo not drawn),-0.171%
19,CCOC(=O)c1cc(-c2ccc(F)cc2)n(CC(=O)NCCC2=CCCCC2)c1C,-0.176%
20,O=C(Cn1c(-c2cccs2)cc2ccccc21)N1CCCCC1,-8.96%
21,CCOC(=O)c1cc(S(=O)(=O)N(C)Cc2ccccc2)cn1C,0.655%
22,CCCn1c2ccccc2c2cnn(CC(=O)N3CCc4ccccc4C3)c(=O)c21,0.691%
23,COC(=O)c1cn(C(=O)c2cnn3c(C(F)F)cc(-c4ccccc4)nc23)c2ccccc12,-0.958%
24,Cc1ccc(/C=C2N=C(/C=C/c3cccc(Cl)c3Cl)OC\2=O)o1,-0.597%
